# Laboratory results taken from PubChem BioAssay AID2147 (National Center for Advancing Translational Sciences (NCATS), 2009).
# Values joined by “and” are separate entries in the source; they are usually repeats but may differ in a detail not shown here. Identical values can stand only once. The whole screen tested about 230,000 compounds, of which about 3,600 (1.6%) were called active. The inconclusive results got no clear call from the source; some entries with a clear call stand among them for comparison. Calls follow the shape of the dose curve; as a rule, active = well fitted inhibition curve with a large enough effect (not every such curve was filed as active); inconclusive = small, poorly fitted or top-dose-only effect, or another doubt; inactive = no such curve, though single readings can be large or run the other way. Potencies beside an inconclusive call are fits to weak or partial responses and may not hold up.
# Target: Lysine-specific demethylase 4E (Homo sapiens) (UniProt B2RXH2)
# Assay: qHTS Assay for Inhibitors of Human Jumonji Domain Containing 2E (JMJD2E)
# Conditions: JMJD2E catalytic domain, FDH-coupled NADH fluorescence (FDH is formaldehyde dehydrogenase); series mostly up to 57.1 µM; activity change, negative = inhibition: at the top concentration
# Excerpt: Assay Provider: Structural Genomics Consortium [SGC] Screening Center PI: Austin, C.P. Screening Center: NIH Chemical Genomics Center [NCGC] The fine interplay among methylation states of several lysine residues on the tails of histone proteins is a major determinant of the transcriptional state of the associated DNA coding regions and is commonly referred to as the histone code. Histone lysine demethylases catalyze the removal of methyl groups from methylated lysine sidechains on histones H3 and H4, thus antagonizing the reactions catalyzed by histone lysine methyltransferases. […] In search for novel inhibitors of JMJD2E demethylase, a member of the largest set of histone demethylases belonging to the Fe(II) and 2-oxoglutarate oxygenase (2OG) superfamily, we performed a quantitative high-throughput screen (Inglese 2006) by using an assay which utilizes a trimethylated peptide substrate corresponding to a fragment of histone H3 (sequence ARKme3STGGK) with detection of the formaldehyde co-product in real time by a formaldehyde dehydrogenase (FDH) coupled reaction. FDH catalyzes oxidation of formaldehyde to formic acid with the concomitant reduction of the non-fluorescent beta-nicotinamide adenine dinucleotide hydrate (NAD+) cofactor to the fluorescent NADH co-product. References: Inglese, J., Auld, D., Jadhav, A., Johnson, R., Simeonov, A., Yasgar, A., Zheng, W. and Austin, C. Proc Natl Acad Sci USA 2006, 103, 11473-11478. N. R. Rose, S. S. Ng, J. Mecinovic, B. M. Lienard, S. H. Bello, Z. Sun, M. A. McDonough, U. Oppermann and C. J. Schofield, J Med Chem, 2008, 51, 7053-7056. Sakurai, M., Rose, N., Schultz, L., Quinn, A., Jadhav, A., Ng, S., Oppermann, U., Schofield, C.J. and Simeonov, A. Mol BioSystems 2009, in press. S. Michael, D. Auld, C. Klumpp, A. Jadhav, W. Zheng, N. Thorne, C. Austin, J. Inglese and A. Simeonov, Assay Drug Dev Technol, 2008, 6, 637-657.
# Reagents and Controls: Ferrous ammonium sulfate, (+)-sodium L-ascorbate, beta-nicotinamide adenine dinucleotide hydrate (NAD+), Tween-20, formaldehyde dehydrogenase from P. putida (FDH), and disodium 2-oxoglutarate were from Sigma (St. Louis, MO). Black solid-bottom 384-well or 1,536-well assay plates were from Greiner Bio-One (Monroe, NC). Enzyme was supplied by Prof. Udo Oppermann, SGC-Oxford. The catalytic domain of human JMJD2E (residues 1-337) was produced as an N-terminally His6-tagged protein in E. coli, and purified by Ni-affinity chromatography and size-exclusion chromatography, and stored in HEPES 50 mM/ NaCl 500 mM pH 7.5, as reported in Rose 2008. The trimethylated histone peptide substrate ARK(me3)STGGK was synthesized and HPLC-purified by the Tufts University Core Facility (Boston, MA). Substrate solution (Sakurai 2009) contained 50 uM ARK(me3)STGGK, 0.00025 U/uL FDH, 50 uM 2-oxoglutarate, 250 uM NAD+, 1 mM ascorbate, and 10 uM ferrous ammonium sulfate. Controls and plate map: Buffer (150 mM HEPES pH 7.5 containing 0.01% Tween-20) in columns 3 and 4 as negative control (no enzyme) and 100 nM JMJD2E final concentration in columns 1,2, and 5-48. Assay Steps: Enzyme and buffer solutions (3 uL) were dispensed into a 1,536-well Greiner black solid-bottom assay plate. The library compounds (23 nL) were transferred using a Kalypsys pintool equipped with 1,536-pin array. The plate was incubated at room temperature (15 min), and then a 1 uL aliquot of substrate solution was added to initiate the reaction. The plate was transferred to ViewLux imager where an initial reading using standard UV optics (Ex 340 nm, Em 450 nm) was obtained. The plate was then removed from the reader, incubated for 30 minutes at room temperature, and returned to the reader for a second fluorescence reading. A fully automated robotic screening system (Kalypsys Inc, San diego, CA) was used to perform the above steps as described previously (Michael 2008). […]
# Also: nearly all actives have a fitted effect of over 50% in size.
# 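For activity change, negative = inhibition in this document: 0% = wells with enzyme and -100% = buffer wells without enzyme.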
# Potency is read from the fitted curve at half-maximal effect; tags tell the direction and shape of the fitted curve.
# Chain of UniProt B2RXH2 (B2RXH2 whole entry, looked up, the tested form may be a part): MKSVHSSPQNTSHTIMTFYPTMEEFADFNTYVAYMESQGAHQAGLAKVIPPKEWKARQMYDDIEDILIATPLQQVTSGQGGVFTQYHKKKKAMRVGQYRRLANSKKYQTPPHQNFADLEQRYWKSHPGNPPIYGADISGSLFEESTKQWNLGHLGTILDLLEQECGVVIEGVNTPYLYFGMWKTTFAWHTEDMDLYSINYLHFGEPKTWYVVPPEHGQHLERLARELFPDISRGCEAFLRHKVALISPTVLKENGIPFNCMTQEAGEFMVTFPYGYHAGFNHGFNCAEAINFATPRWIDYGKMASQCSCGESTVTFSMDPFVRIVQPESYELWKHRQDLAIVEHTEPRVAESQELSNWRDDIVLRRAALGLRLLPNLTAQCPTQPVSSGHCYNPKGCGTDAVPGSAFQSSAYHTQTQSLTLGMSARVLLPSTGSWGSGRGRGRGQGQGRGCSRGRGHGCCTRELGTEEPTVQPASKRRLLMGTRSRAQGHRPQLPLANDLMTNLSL
SMILES,Potency,"activity change, negative = inhibition"
COCC(=O)Nc1ccc2c(c1)OCO2,"inconclusive: 0.005 µM [inhibitor, full curve, poor fit]",–
O=C(O)c1ccc(NC2=C(Cl)C(=O)c3ccccc3C2=O)cc1,–,inactive: -14%
O=C(Nc1cccc(S(=O)(=O)Nc2ccc(Cl)cc2)c1)c1cc2c(s1)CCCC2,"inconclusive: 28.2 µM [inhibitor, partial curve]",–
COc1ccc(/C=C/C(=O)c2nc3ccccc3n2CC(=O)c2ccc(OC)cc2)cc1,"inconclusive: 35.5 µM [inhibitor, single point]",–
COc1cc(CNc2ccc(N3CCN(C(C)=O)CC3)cc2)ccc1OCc1ccc(F)cc1,"inconclusive: 28.2 µM [inhibitor, single point]",–
Cc1cc(C)c(C#N)c(SCC(=O)Nc2nnc(-c3ccccc3)s2)n1,"inconclusive: 12.6 µM [inhibitor, partial curve]",–
O=C(CSCc1ccc([N+](=O)[O-])cc1)NN=C1CCCCCC1,–,inactive: -1.05%
C[C@@H]1OC(OC2CC[C@@]3(C)C(CC[C@@]4(C)C3CC=C3C5CC(C)(C)CC[C@]5(C(=O)OC5OCC(O)[C@@H](O)[C@@H]5OC5O[C@@H](C)[C@H](O[C@H]6OC(CO)C(O)C(O)C6O)C(O)C5O)C(O)C[C@@]34C)C2(C)C)C(O)C(O)[C@H]1OC1OCC(O)C(O)[C@H]1O (stereo partly drawn),–,inactive: -13.5%
CCC(C(=O)N1CCN(c2ccccc2OC)CC1)c1ccccc1 (stereo not drawn),–,inactive: -2%
COc1ccc2[nH]c3c(N4CCc5ccccc5C4)ncnc3c2c1,"inconclusive: 31.6 µM [inhibitor, partial curve]",–
CC(C)(CO)NC(=O)CC1C(=O)NCCN1CC(c1ccccc1)c1ccccc1 (stereo not drawn),"inconclusive: 39.8 µM [inhibitor, single point]",–
CCC1(C)Cc2c(sc3nc(SCC(=O)O)[nH]c(=O)c23)CO1 (stereo not drawn),"inconclusive: 25.1 µM [inhibitor, single point]",–
Cc1cc(C)c2cc(CN(CCO)C(=O)NC3CCCCC3)c(=O)[nH]c2c1,"inconclusive: 35.5 µM [inhibitor, single point]",–
O=C(CN1CC(=O)Oc2ccccc21)OCC(=O)c1cccc(Br)c1,"inconclusive: 3.16 µM [inhibitor, partial curve]",–
CC1CCCN(C2=C(NS(=O)(=O)c3ccc(Cl)cc3)C(=O)c3ccccc3C2=O)C1 (stereo not drawn),–,inactive: -1.72%
C[n+]1cccc2c(Br)ccc([O-])c21,"inconclusive: 1.12 µM [inhibitor, single point]",–
CCCCCCCCNc1ncnc2ccccc12,–,inactive: 2.11%
CCOc1cc(/C=N/n2cnnc2)c(Br)cc1O,"inconclusive: 39.8 µM [inhibitor, single point]",–
Cc1ccc2c3c(cccc13)-c1ccccc1C2=O,"inconclusive: 39.8 µM [inhibitor, single point]",–
Cc1cc(Sc2ncnc(N)c2[N+](=O)[O-])ncn1,–,inactive: -5.51%
CCOC(=O)c1ccc(NC(=S)N(CCCN2CCCC2)Cc2ccco2)cc1,–,inactive: 7.34%
O=C(Nc1ccc(Cl)cn1)c1ccc(COc2ccccc2Br)o1,"inconclusive: 31.6 µM [inhibitor, single point]",–

SMILES,Potency,"activity change, negative = inhibition"
COc1ccc(CNCC(=O)Nc2sccc2C#N)cc1,"inconclusive: 14.1 µM [inhibitor, partial curve]",–
COC(=O)CNC(=O)CN1c2cccc3cccc(c23)S1(=O)=O,"inconclusive: 22.4 µM [inhibitor, partial curve]",–
O=C(N/N=C/c1cc(Cl)ccc1O)c1ccncc1,active: 12.6 µM,–
O=C(CNc1cccc2ccccc12)N/N=C/c1ccc[nH]1,"inconclusive: 31.6 µM [inhibitor, single point]",–
O=C(OCC(=O)N1CCN(C(=O)c2ccco2)CC1)c1cc(-c2ccccc2)nc2ccccc12,"inconclusive: 31.6 µM [inhibitor, partial curve]",–
CC1CCN(CCCOc2ccc(OCc3ccccc3)cc2)CC1,"inconclusive: 31.6 µM [inhibitor, single point]",–
CC1(C)NC(=O)N(CCOCCOc2ccc3ccccc3c2Br)C1=O,–,inactive: 2.22%
CNc1ccccc1C(=O)N1CCc2c([nH]c3ccccc23)C1=O,"inconclusive: 28.2 µM [inhibitor, single point]",–
COC(=O)c1ccccc1NC(=O)c1ccc(COc2cc(C)cc(C)c2)o1,"inconclusive: 6.31 µM [inhibitor, single point]",–
CCCCN1Cc2c(nc3cc(-c4ccccc4)[nH]n3c2=O)C1=O,"inconclusive: 18.9 µM [inhibitor, partial curve]",–
CCOC(=O)CSc1nnc2n(Cc3ccccc3)c(=O)c3c4c(sc3n12)CCC4,–,inactive: 0.565%
Cc1c2c(nc3c(C)cccc13)OC(C)C2 (stereo not drawn),"inconclusive: 39.8 µM [inhibitor, single point]",–
COC(=O)c1c(NC(=O)c2c(C)noc2C)sc2c1CCCCCC2,"inconclusive: 35.5 µM [inhibitor, single point]",–
CCN(CC)c1cc(C)c(C#N)c2nc3ccccc3n12,"inconclusive: 3.98 µM [inhibitor, partial curve]",–
COc1cc(/C=C2\C(=O)NN(c3ccc(C)cc3)C2=O)cc([N+](=O)[O-])c1O,–,inactive: -13.2%
CCOC(=O)N1CCC(NC(=O)c2cc3c(-c4ccc(OC)c(OC)c4)nn(C)c3s2)CC1,"inconclusive: 7.94 µM [inhibitor, partial curve]",–
Cc1cc(/C=N/NC(=O)c2ccccn2)c(C)n1-c1cccc([N+](=O)[O-])c1,"inconclusive: 22.4 µM [inhibitor, partial curve, poor fit]",–
CCN(CC)c1ccc2cc(C=O)c(=O)oc2c1,"inconclusive: 39.8 µM [inhibitor, single point]",–
COc1ccc(-c2nc(-c3ccccc3)nc(Cl)c2C#N)cc1,–,inactive: -26.5%
CC(=O)CCc1c(C)c2cccc(C)c2[nH]c1=O,"inconclusive: 39.8 µM [inhibitor, single point]",–
Cc1cc(N)c2ccccc2[n+]1CCCCCCCCCC[n+]1c(C)cc(N)c2ccccc21,"inconclusive: 35.5 µM [inhibitor, partial curve] and inconclusive: 39.8 µM [inhibitor, single point] and inconclusive: 35.5 µM [inhibitor, single point]",–
